# Values joined by “and” are separate entries in the source; they are usually repeats but may differ in a detail not shown here. Equal entries are not always repeated. The inconclusive results got no clear call from the source; some entries with a clear call stand among them for comparison. For some assays here: Where the call is inconclusive, the potency comes from a doubtful curve fit. Active and inactive are the calls of the source. Unless noted, calls come from the whole dose curve; as a rule, active = well fitted curve in the direction sought with a large enough effect in the repeat runs; inconclusive = weak or mixed curves; inactive = no such curve, though single readings can be large; an effect the other way counts as inactive or inconclusive.
# Experiments:
# [1] = biological target: Estrogen receptor beta (Homo sapiens) (UniProt Q92731); test: qHTS assay to identify small molecule antagonists of the estrogen receptor beta (ER-beta) signaling pathway (AID 1259378; active = well fitted inhibition curve with a large enough effect in the signal ratio in the repeat runs, not every such curve was filed as active; inconclusive = weak or mixed curves, or effect the other way; inactive = no such curve, though single readings can be large or run the other way; the % refers to the signal ratio; note: potency is the fitted concentration of half-maximal effect; for activity, negative = inhibition: % is set by controls: 0 for no effect and ±100 for the full control effect); details: ER-beta-UAS-bla HEK293T, beta-lactamase FRET ratio, 16 h; activity, negative = inhibition: at 92.4 µM (top of the series) unless noted
# Chain of UniProt Q92731 (Q92731 whole entry, looked up): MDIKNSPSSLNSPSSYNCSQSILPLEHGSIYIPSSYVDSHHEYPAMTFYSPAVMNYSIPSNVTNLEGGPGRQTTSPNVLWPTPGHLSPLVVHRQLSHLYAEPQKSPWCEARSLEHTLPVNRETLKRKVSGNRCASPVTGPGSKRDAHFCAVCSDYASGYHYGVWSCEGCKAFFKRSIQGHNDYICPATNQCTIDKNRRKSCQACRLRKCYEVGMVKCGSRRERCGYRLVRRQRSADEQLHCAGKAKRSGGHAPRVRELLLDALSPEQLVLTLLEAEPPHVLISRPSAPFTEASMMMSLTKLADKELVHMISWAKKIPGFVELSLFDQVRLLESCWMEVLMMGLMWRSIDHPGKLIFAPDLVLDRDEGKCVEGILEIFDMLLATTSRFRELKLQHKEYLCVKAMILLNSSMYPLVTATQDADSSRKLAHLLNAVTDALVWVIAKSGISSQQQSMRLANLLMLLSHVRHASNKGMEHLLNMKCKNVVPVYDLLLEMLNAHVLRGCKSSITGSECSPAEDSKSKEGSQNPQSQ
# Method in brief: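 ER-beta-UAS-bla HEK293T (GripTite) cells in 2% charcoal-stripped FBS medium were preincubated 6 hr at 37C, dosed with compound, then stimulated with 1 nM E2 (final) for 16 hr; beta-lactamase reporter read by B/G FRET fluorescence after 2 hr substrate loading.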
# [2] = qHTS assay to identify small molecule agonists of the estrogen receptor beta (ER-beta) signaling pathway - cell viability counter screen (AID 1259380); note: nearly all actives have a fitted effect of over 30% in size; note: potency is the fitted concentration of half-maximal effect
# Method in brief: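 Same-well viability counter screen. Cells: ER-beta-UAS-bla HEK293T, plated 6 hr before compound, in 2% charcoal-stripped FBS. Compound exposure 16 hr, 37C; viability by CellTiter-Glo luminescence after 30 min at room temperature.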
# [3] = biological target: Progesterone receptor (Homo sapiens) (UniProt P06401); test: qHTS assay to identify small molecule antagonists of the progesterone receptor (PR) signaling pathway (AID 1346795; active = well fitted inhibition curve with a large enough effect in the signal ratio in the repeat runs, not every such curve was filed as active; inconclusive = weak or mixed curves; the % refers to the signal ratio; note: potency is the fitted concentration of half-maximal effect; for activity change, negative = inhibition: % is set by controls: 0 for no effect and ±100 for the full control effect); details: PR-UAS-bla HEK293T, beta-lactamase FRET ratio, 16 h; activity change, negative = inhibition: at 92.4 µM (top of the series) unless noted
# Chain of UniProt P06401 (P06401 whole entry, looked up): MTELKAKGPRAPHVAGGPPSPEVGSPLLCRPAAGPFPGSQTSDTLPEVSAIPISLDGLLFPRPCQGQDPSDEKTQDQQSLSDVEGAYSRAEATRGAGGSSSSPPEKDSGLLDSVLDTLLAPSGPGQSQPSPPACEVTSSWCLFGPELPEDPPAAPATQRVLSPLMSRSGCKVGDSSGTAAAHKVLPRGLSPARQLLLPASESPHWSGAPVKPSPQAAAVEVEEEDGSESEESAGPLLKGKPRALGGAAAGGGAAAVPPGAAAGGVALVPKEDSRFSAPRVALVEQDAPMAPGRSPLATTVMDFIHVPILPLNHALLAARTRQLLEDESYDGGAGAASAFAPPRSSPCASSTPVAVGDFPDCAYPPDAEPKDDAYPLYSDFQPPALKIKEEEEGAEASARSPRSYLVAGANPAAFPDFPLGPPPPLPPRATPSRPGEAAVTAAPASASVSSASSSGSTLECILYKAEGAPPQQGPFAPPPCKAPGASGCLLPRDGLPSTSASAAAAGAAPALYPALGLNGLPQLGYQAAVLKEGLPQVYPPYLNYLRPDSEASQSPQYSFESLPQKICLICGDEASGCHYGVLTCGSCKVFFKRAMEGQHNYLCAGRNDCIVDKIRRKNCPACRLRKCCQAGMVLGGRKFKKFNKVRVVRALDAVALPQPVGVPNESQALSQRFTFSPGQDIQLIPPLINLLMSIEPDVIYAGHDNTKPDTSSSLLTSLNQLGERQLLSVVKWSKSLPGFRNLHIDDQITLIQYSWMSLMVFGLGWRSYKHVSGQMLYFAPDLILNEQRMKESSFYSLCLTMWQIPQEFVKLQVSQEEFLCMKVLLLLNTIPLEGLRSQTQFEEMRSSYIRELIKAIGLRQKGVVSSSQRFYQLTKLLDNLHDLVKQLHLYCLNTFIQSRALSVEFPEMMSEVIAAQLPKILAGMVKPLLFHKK
# Method in brief: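 Inhibition of R5020-induced (1 nM final) beta-lactamase reporter signal in PR-UAS-bla HEK293T cells was scored by FRET fluorescence after overnight (16 hr) compound treatment.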
# [4] = qHTS assay to identify small molecule antagonists of the progesterone receptor (PR) signaling pathway - cell viability counter screen (AID 1346798); note: nearly all actives have a fitted effect of over 50% in size; note: potency is the fitted concentration of half-maximal effect
# Method in brief: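 ATP content as viability readout: CellTiter-Glo luminescence, 30 min room temperature, in PR-UAS-bla HEK293T cells after 16 hr compound/R5020 treatment at 37C and 5% CO2.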
# [5] = qHTS assay to identify small molecule agonists of the progesterone receptor (PR) signaling pathway - cell viability counter screen (AID 1346799; calls by dose curve; note: potency is the fitted concentration of half-maximal effect; nearly all actives have a fitted effect of over 45% in size)
# Method in brief: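 Cytotoxicity in PR-bla HEK293T cells: 16 h compound, 37C; CellTiter-Glo added post-FRET read; luminescence after 30 min RT.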
# [6] = qHTS assay to identify small molecule antagonists of the TGF-beta/Smad signaling pathway (AID 1346924; active = well fitted inhibition curve with a large enough effect in the signal ratio in the repeat runs, not every such curve was filed as active; inconclusive = weak or mixed curves; the % refers to the signal ratio; note: potency is the fitted concentration of half-maximal effect); details: SBE-bla HEK293T, TGF-beta/Smad reporter, beta-lactamase ratio
# Method in brief: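 SBE-bla HEK 293T cells were plated overnight, then received compound in DMSO plus TGF-beta1 (added as a 0.25 ng/mL solution) and were incubated 5 h at 37 C. Beta-lactamase reporter activity was read after 2 h at room temperature with LiveBLAzer B/G FRET substrate (ex 405, em 460/530 nm).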
# [7] = biological target: Progesterone receptor (Homo sapiens) (UniProt P06401); test: qHTS assay to identify small molecule agonists of the progesterone receptor (PR) signaling pathway (AID 1346784; calls by dose curve; note: nearly all actives have a fitted effect of over 30% in size; note: potency is the fitted concentration of half-maximal effect); details: PR-UAS-bla HEK293T, beta-lactamase FRET ratio, 16 h; activation: at 92.4 µM (top of the series) unless noted
# Method in brief: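 Using charcoal-stripped serum (2%) to limit endogenous steroids, PR-UAS-bla HEK 293T cells received compounds for 16 hr at 37C after 6 hr plating; beta-lactamase FRET fluorescence was recorded following 2 hr substrate loading at room temperature.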
# [8] = qHTS assay to identify small molecule antagonists of the estrogen receptor beta (ER-beta) signaling pathway - cell viability counter screen (AID 1259382); note: potency is the fitted concentration of half-maximal effect; nearly all actives have a fitted effect of over 55% in size
# Method in brief: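 Following a 6 hr plating period, HEK293T cells carrying a UAS-driven beta-lactamase reporter under ER-beta control received compounds and 1nM E2 (final). After 16 hr at 37C and 2 hr substrate loading, CellTiter-Glo luminescence indicated viability.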
# [9] = qHTS assay to identify small molecule agonists or antagonists of the thyroid stimulating hormone receptor (TSHR) signaling pathway - wild type cell line counter screen (AID 1259384; calls by dose curve; note: potency is the fitted concentration of half-maximal effect); details: HEK293 wild type, cAMP HTRF counter-screen; cAMP activity change: at 92.4 µM (top of the series), active compounds read high unless noted
# Method in brief: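 Wild-type HEK293 cells were plated 18 h at 37 C/5% CO2, pin-dosed with compound plus Ro20-1724 medium, held 30 min at room temperature, then given cAMP-d2 and anti-cAMP-cryptate; fluorescence was read after 1 h. Fifteen concentrations, triplicate.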
# [10] = qHTS assay to identify small molecule agonists of the TGF-beta/Smad signaling pathway - cell viability counter screen (AID 1346829); note: potency is the fitted concentration of half-maximal effect; nearly all actives have a fitted effect of over 45% in size
# Method in brief: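 Here the cytotoxicity of library compounds is measured in SBE-bla HEK 293T cells treated for 5 hr, using CellTiter-Glo added to wells already read for the beta-lactamase reporter.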
# [11] = qHTS assay to identify small molecule agonists of the estrogen receptor alpha (ER-alpha) signaling pathway in the presence of an antagonist - cell viability counter screen (AID 1259386);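 note: potency is the fitted concentration of half-maximal effect; cells exposed to compounds for 22 h at 37 °C before the viability read; nearly all actives have a fitted effect of over 30% in size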
# Method in brief: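 Cells are starved of estrogens for 5 days in charcoal-stripped serum, seeded for 24hr and co-treated with ICI-182,780 (10.0nM final) and test compounds. After 22hr at 37C, viability is read as CellTiter-Fluor fluorescence.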
# [12] = qHTS assay to identify small molecule antagonists of the TGF-beta/Smad signaling pathway - cell viability counter screen (AID 1346824); note: potency is the fitted concentration of half-maximal effect; nearly all actives have a fitted effect of over 50% in size
# Method in brief: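 SBE-bla HEK 293T cells were plated overnight at 37 C, then given compounds in DMSO plus TGF-beta1 (added as 0.25 ng/mL solution) for 5 hr. After the bla read, CellTiter-Glo was added to the same wells and luminescence read after 30 min at room temperature.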
# [13] = biological target: Thyrotropin-releasing hormone receptor (Homo sapiens) (UniProt P34981); test: qHTS assay to identify small molecule antagonists of the thyrotropin-releasing hormone receptor (TRHR) signaling pathway (AID 1346877; active = well fitted inhibition curve with a large enough effect in the repeat runs, not every such curve was filed as active; inconclusive = weak or mixed curves; note: % is set by controls: 0 for no effect and ±100 for the full control effect)
# Chain of UniProt P34981 (P34981 whole entry, looked up): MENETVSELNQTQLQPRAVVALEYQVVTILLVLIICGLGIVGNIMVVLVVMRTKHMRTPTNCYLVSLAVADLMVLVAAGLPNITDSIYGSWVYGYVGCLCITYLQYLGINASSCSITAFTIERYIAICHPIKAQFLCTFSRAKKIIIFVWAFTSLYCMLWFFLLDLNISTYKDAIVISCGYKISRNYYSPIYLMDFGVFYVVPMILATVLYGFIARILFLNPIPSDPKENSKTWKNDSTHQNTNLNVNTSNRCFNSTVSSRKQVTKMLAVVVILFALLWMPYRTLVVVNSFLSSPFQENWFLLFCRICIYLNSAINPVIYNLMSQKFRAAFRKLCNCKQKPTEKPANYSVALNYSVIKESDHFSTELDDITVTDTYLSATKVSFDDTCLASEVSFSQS
# Method in brief: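 Cells (TRHR-HEK293) are plated and kept 18 h at 37 °C/5% CO2. A calcium-sensitive dye is added for 2 h, compound follows for 5 min at room temperature, and TRH is then given at 1 nM final.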
# [14] = biological target: Thyrotropin receptor (Homo sapiens) (UniProt P16473); test: qHTS assay to identify small molecule antagonists of the thyroid stimulating hormone receptor (TSHR) signaling pathway (AID 1259385; calls by dose curve; note: nearly all actives have a fitted effect of over 20% in size; note: potency is the fitted concentration of half-maximal effect); details: TSHR-HEK293 cAMP HTRF, TSH-stimulated antagonist mode; activity change, negative = inhibition: at 92.4 µM (top of the series) unless noted
# Chain of UniProt P16473 (P16473 whole entry, looked up): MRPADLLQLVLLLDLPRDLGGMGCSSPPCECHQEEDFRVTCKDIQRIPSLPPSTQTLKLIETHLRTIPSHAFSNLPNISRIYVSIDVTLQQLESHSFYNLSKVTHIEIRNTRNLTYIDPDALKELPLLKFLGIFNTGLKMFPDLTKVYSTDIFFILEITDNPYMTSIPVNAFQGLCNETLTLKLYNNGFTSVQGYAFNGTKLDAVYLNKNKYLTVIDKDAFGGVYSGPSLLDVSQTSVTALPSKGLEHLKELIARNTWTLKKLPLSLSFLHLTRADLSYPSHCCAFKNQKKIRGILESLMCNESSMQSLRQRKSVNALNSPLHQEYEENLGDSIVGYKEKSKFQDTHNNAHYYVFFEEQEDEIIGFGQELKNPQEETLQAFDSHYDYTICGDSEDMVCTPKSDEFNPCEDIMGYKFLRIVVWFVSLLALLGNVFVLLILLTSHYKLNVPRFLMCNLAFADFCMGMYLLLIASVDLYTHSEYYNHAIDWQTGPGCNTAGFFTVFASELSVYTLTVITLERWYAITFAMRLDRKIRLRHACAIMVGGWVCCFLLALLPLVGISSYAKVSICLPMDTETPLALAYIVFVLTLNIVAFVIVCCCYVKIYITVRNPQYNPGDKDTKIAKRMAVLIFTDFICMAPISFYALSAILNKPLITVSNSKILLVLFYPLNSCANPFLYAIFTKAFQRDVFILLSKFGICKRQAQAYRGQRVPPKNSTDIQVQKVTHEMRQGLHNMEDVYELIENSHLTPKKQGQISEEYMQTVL
# Method in brief: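 TSHR-HEK293 cells were plated and held 18 h at 37C/5% CO2, then given compound plus Ro20-1724 and stimulated with TSH at 1.5 ng/mL final. After 30 min at room temperature, cAMP was detected with cAMP-d2/anti-cAMP-cryptate (1 h) by fluorescence.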
# [15] = qHTS assay to identify small molecule agonists of the TGF-beta/Smad signaling pathway (AID 1346859; active = well fitted activation curve with a large enough effect in the signal ratio in the repeat runs, not every such curve was filed as active; inconclusive = weak or mixed curves; the % refers to the signal ratio; note: % is set by controls: 0 for no effect and ±100 for the full control effect); details: SBE-bla HEK293T, TGF-beta/Smad beta-lactamase reporter, 5 h; activation: at 76.8 µM (top of the series) unless noted
# Method in brief: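 Stable Smad binding element-beta-lactamase HEK 293T cells; 5 hr compound exposure at 37 C under 5% CO2; 2 hr room-temperature substrate step; fluorescence excited at 405 nm, collected at 460 nm and 530 nm.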
# [16] = activity, negative = inhibition: at 76.8 µM (top of the series) unless noted
# Tags give direction and shape of the fitted curve or compound fluorescence and quenching.
smiles,measurement,setting,value
Clc1ccc(Nc2nnc(Cc3ccncc3)c3ccccc23)cc1,Potency,[1],active: 13.3 µM
same,Potency,[2],"inconclusive: 23.7 µM [rising, partial curve]"
same,Potency,[3],active: 26.6 µM
same,Potency,[4],"inconclusive: 13.3 µM [rising, partial curve]"
same,Potency,[5],"inconclusive: 13.3 µM [rising, full curve]"
same,"activity, negative = inhibition",[6]; [16],inconclusive: 4.55% [at 35.3 µM]
C1CC(COCC2CO2)CCC1COCC1CO1 (stereo not drawn),Potency,[1],inconclusive: 77 µM
same,Potency,[2],"inconclusive: 54.5 µM [cytotoxic, partial curve]"
same,Potency,[7],"inconclusive: 61.1 µM [fluorescent, partial curve]"
same,Potency,[3],inconclusive: 68.6 µM [single point]
same,Potency,[6]; [16],"inconclusive: 38.9 µM [fluorescent, partial curve]"
CCN(Cc1ccncc1)C(=O)C(CO)c1ccccc1 (stereo not drawn),Potency,[1],inactive
same,Potency,[2],"inconclusive: 33.5 µM [cytotoxic, single point]"
same,Potency,[4],inactive
O=c1[nH]sc2cc(Cl)ccc12,Potency,[1],inconclusive: 6.68 µM [inhibitor]
same,Potency,[8],"inconclusive: 26.6 µM [cytotoxic, partial curve, poor fit]"
same,Potency,[3],"inconclusive: 26.6 µM [falling, partial curve, poor fit]"
same,Potency,[4],"inconclusive: 33.5 µM [cytotoxic, single point]"
same,"activity, negative = inhibition",[6]; [16],inconclusive: -9.4% [at 35.3 µM]
CN(Cc1cnc2nc(N)nc(N)c2n1)c1ccc(C(=O)N[C@@H](CCC(=O)O)C(=O)O)cc1,Potency,[1],"inconclusive: 0.596 µM [inhibitor, full curve]"
same,Potency,[8],"inconclusive: 217 nM [cytotoxic, full curve] and inconclusive: 168 nM [cytotoxic, full curve]"
same,Potency,[9],inconclusive: 54.5 µM
same,Potency,[10],"inconclusive: 110 nM [cytotoxic, full curve] and inconclusive: 47.7 nM [cytotoxic, full curve]"
same,"activity, negative = inhibition",[6]; at 35.3 µM (top of the series),inconclusive: -34.8%
same,"activity, negative = inhibition",[6]; at 76.8 µM (top of the series),inconclusive: -27.9%
O=C(NS(=O)(=O)/C=C/c1ccccc1)c1ccc(F)cc1Cl,"activity, negative = inhibition",[1],inconclusive: 0.673%
same,Potency,[2],inactive
same,"activity change, negative = inhibition",[3],inconclusive: -9.82%
same,Potency,[5],"inconclusive: 48.6 µM [cytotoxic, partial curve]"
O=[N+]([O-])c1cc(N(CCO)CCO)ccc1NCCO,"activity, negative = inhibition",[1],inconclusive: 27%
same,Potency,[9],inconclusive: 7.98 µM and inconclusive: 12.7 µM
same,Potency,[3],inactive
same,Potency,[4],"inconclusive: 61.1 µM [cytotoxic, partial curve, poor fit]"
CN1C(=O)N(c2ccccc2Br)Cc2cnc(Nc3ccc4c(c3)OCC(CO)O4)nc21 (stereo not drawn),Potency,[1],inconclusive: 54.5 µM [partial curve]
same,Potency,[8],active: 38.6 µM
same,Potency,[11],"inconclusive: 77 µM [cytotoxic, partial curve, poor fit]"
same,Potency,[7],inconclusive: 2.73 µM [cytotoxic]
same,Potency,[3],"inconclusive: 38.6 µM [rising, partial curve, poor fit]"
same,Potency,[4],active: 38.6 µM
same,Potency,[5],"inconclusive: 27.3 µM [cytotoxic, partial curve, poor fit]"
same,Potency,[12],"inconclusive: 38.9 µM [cytotoxic, partial curve]"
same,Potency,[10],active: 34.7 µM
same,Potency,[6]; [16],"inconclusive: 19.5 µM [rising, partial curve, poor fit]"
CC(C)N=C(N)/N=C(\N)Nc1ccc(Cl)cc1,"activity, negative = inhibition",[1],inconclusive: -50.9% [at 42.5 µM]
same,Potency,[8],"inconclusive: 26.6 µM [cytotoxic, partial curve]"
same,Potency,[3],inconclusive: 26.6 µM
CS(=O)(=O)c1ccc(-c2cn3ccccc3n2)cc1,Potency,[1],"inconclusive: 18.8 µM [activator, partial curve]"
same,Potency,[2],"inconclusive: 29.8 µM [cytotoxic, partial curve, poor fit]"
same,"activity change, negative = inhibition",[3],inconclusive: -34.5% [at 42.5 µM]
same,Potency,[5],"inconclusive: 2.98 µM [cytotoxic, full curve, poor fit]"
same,Potency,[13],inactive
COc1c(Cl)c(Cl)c(Cl)c(Cl)c1Cl,Potency,[1],inactive
same,"activity change, negative = inhibition",[14],inconclusive: -11.5%
same,Potency,[7],inactive
CN(C)CCOc1ccccc1Cc1ccccc1,Potency,[1],inactive
same,Potency,[8],"inconclusive: 26.6 µM [cytotoxic, single point]"
same,Potency,[14],active: 29.8 µM
same,Potency,[4],"inconclusive: 26.6 µM [cytotoxic, partial curve, poor fit]"
same,Potency,[5],"inconclusive: 16.8 µM [cytotoxic, partial curve]"
O=C(O)CCc1nc(-c2ccccc2)c(-c2ccccc2)o1,Potency,[1],inconclusive: 29.8 µM [fluorescent]
same,Potency,[2],"inconclusive: 23.7 µM [cytotoxic, partial curve, poor fit]"
same,Potency,[3],inactive
same,Potency,[5],"inconclusive: 21.1 µM [cytotoxic, partial curve]"
CN1CCN(C2=Nc3cc(Cl)ccc3Nc3ccccc32)CC1,Potency,[1],inconclusive: 33.5 µM [inhibitor]
same,Potency,[8],"inconclusive: 23.7 µM [cytotoxic, partial curve]"
same,Potency,[3],active: 23.7 µM
same,Potency,[15],inactive
same,"activity, negative = inhibition",[6]; [16],inconclusive: -5.69% [at 35.3 µM]

# Source: PubChem BioAssay (Tox21)
